According to PubChem BioAssay AID686979 (National Center for Advancing Translational Sciences (NCATS), 2013):
Where “and” joins values, the source holds several entries; their conditions need not be identical. Equal values may be shown once. Hit rate of the full screen: of about 420,000 compounds, about 50,000 (12%) were called active. This list was built around the results that the source calls inconclusive (neither active nor inactive); the mix of calls is not that of the screen. The call rests on the fitted dose curve; in most records, active means well fitted inhibition curve with a large enough effect; inconclusive means small, poorly fitted or top-dose-only effect; inactive means flat fitted curve, though single readings scatter. Where the call is inconclusive, the potency comes from a doubtful curve fit.

assay: qHTS for Inhibitors of human tyrosyl-DNA phosphodiesterase 1 (TDP1): qHTS in cells in presence of CPT; details: chicken DT40 Tdp1-/-;hTDP1 cells + 20 nM CPT, ATP luminescence, 48 h; activity change, negative = growth inhibition: at 46.2 µM (top of the series) unless noted; further: nearly all actives have a fitted effect of over 55% in size
How it was run: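 Cell growth measured by CellTiter-Glo luminescence after a minimum 48 h, 37 C compound exposure with 20 nM CPT in Tdp1-knockout DT40 cells stably expressing hTDP1, seeded 400/well; qHTS titration format.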
On the % scale 0 is the no-effect control and ±100 the full control effect; potency means the concentration at half of the fitted maximal effect; tags describe the fitted curve by direction and shape.

Structure (SMILES)	Potency	activity change, negative = growth inhibition
CN1CCN(C(=O)CSc2nc(-c3ccco3)cc(C(F)(F)F)n2)CC1	inactive	–
C/C(Cn1nnc2ccccc21)=N\OC(=O)c1cc(F)c(F)cc1Cl	inactive	–
CN(C)c1nc(OCCOC(=O)c2ccccc2)nc(N(C)C)n1	inconclusive: 16.4 µM [inhibitor, single point]	–
Cc1ccc(-c2cc3c(n2-c2ccccc2F)CC(C)(C)CC3=O)cc1	active: 18.4 µM	–
Cc1ccc(C)c(NC(=O)CN(C)C(=O)[C@@H](NC(=O)c2ccc(C(C)(C)C)cc2)C(C)C)c1	active: 23.1 µM	–
Cc1ccc(C)c(NC(=O)NNC(=O)c2ccc3ccccc3c2O)c1	inconclusive: 29.1 µM [inhibitor, single point]	–
C=C(C)c1nc2cc(OC)c(OC)cc2c(=O)o1	inconclusive: 29.1 µM [inhibitor, single point]	–
O=C1CC(c2nnc(Cc3ccccc3Cl)o2)CN1c1ccccc1 (configuration not stated)	inactive	–
CC1(C(=O)Nc2cccc(Oc3ccccc3)c2)Cc2c(-c3ccccc3)ccnc2O1 (configuration not stated)	inconclusive: 18.4 µM [inhibitor, single point]	–
Cc1c(NC(=O)CSc2n[nH]c(=O)n2-c2ccccc2)c(=O)n(-c2ccccc2)n1C	inconclusive: 29.1 µM [inhibitor, single point]	–
COc1ccc(-c2[nH]ncc2/C=C(\C#N)C(=O)NC2CC2)cc1	inconclusive: 20.6 µM [inhibitor, single point]	–
COc1ccc(NC(=O)Cn2cc(C(=O)c3ccco3)c3ccccc32)cc1	–	inconclusive: -30.6% [inhibitor]
c1ccc(C2[C@H]3CN(CC4CCCCC4)[C@H](c4ccccc4)C34CC2(c2cccnc2)C4)cc1 (some centres not stated)	active: 23.1 µM	–
Oc1ccc(Cl)cc1CNCC1CCCCC1	active: 14.6 µM	–
CCOC(=O)c1cccc(C2=CC(=O)C[C@H](c3ccc(Cl)cc3)C2)c1	inconclusive: 29.1 µM [inhibitor, single point]	–
Cc1ccc(S(=O)(=O)N(C)c2nc3ccccc3n3c(C(C)C)nnc23)cc1	inconclusive: 29.1 µM [inhibitor, single point]	–
Cc1ccc2nc(-c3cccc(Br)c3)cc(C(=O)NC3=NCCS3)c2c1	inconclusive: 29.1 µM [inhibitor, single point]	–
O=S1(=O)C=C(SCCN2CCCCC2)c2ccccc21	inactive	–
Cc1cccc(C(=O)N2CCCC(c3nc(-c4ccc(F)cc4)no3)C2)c1 (configuration not stated)	inconclusive: 25.9 µM [inhibitor, single point]	–
COCCN1CCN(C(=O)c2cc(COc3ccc(Cl)cc3OC)on2)CC1	inactive	–
CCn1nc(NC(=O)c2ccccn2)c2cc3cccc(C)c3nc21	inconclusive: 18.4 µM [inhibitor, single point]	–
Cc1c(NC(=O)COC(=O)c2cc(-c3cccc4ccccc34)nc3ccccc23)c(=O)n(-c2ccccc2)n1C	inconclusive: 14.6 µM [inhibitor, single point]	–
COc1ccccc1CNC(=O)c1cc(S(=O)(=O)N2CCOCC2)cn1C	inactive	–
CCOC(=O)c1cnc2ccc(C)cc2c1NCCc1ccc(OC)c(OC)c1	active: 14.6 µM	–

Structure (SMILES)	Potency	activity change, negative = growth inhibition
Cc1ccc(NC(=O)c2sc3nc(-c4ccc(F)cc4)ccc3c2N)cc1F	active: 11.6 µM	–
Cc1ccc(NC(=O)C(Cc2ccccc2)NC(=O)OCc2ccccc2)cc1C (configuration not stated)	inconclusive: 11.6 µM [inhibitor, partial curve, poor fit]	–
COc1ccc(NC(=O)c2oc3ccccc3c2NC(=O)Cc2cccs2)cc1	inconclusive: 23.1 µM [inhibitor, single point]	–
CC(C)(C)OC(=O)N1CCC(NC(=O)c2[nH]cnc2C(=O)Nc2ccccc2)CC1	inconclusive: 29.1 µM [inhibitor, partial curve, poor fit]	–
COc1ccc(NC(=O)CN2C(=O)COc3ccc(S(=O)(=O)N4CCCCC4)cc32)cc1Cl	inconclusive: 20.6 µM [inhibitor, single point]	–
Cc1cc(OCc2cccc(Cl)c2)c(C)cc1CN1CCOCC1	active: 18.4 µM	–
O=[N+]([O-])c1ccccc1S(=O)(=O)c1ccccc1	inactive	–
O=S(=O)(Cc1ccccc1)Cc1cnc(Cl)s1	inactive	–
O=C(CN1C(=O)CSc2ccc(S(=O)(=O)N3CCCC3)cc21)NCc1ccc(Cl)cc1	inconclusive: 14.6 µM [inhibitor, partial curve]	–
COc1ccc(C)cc1NC(=O)N1CCN(c2cc(-c3noc(C)n3)ccc2C)CC1	inconclusive: 16.4 µM [inhibitor, partial curve]	–
CN(C)c1ccc(/C=C/c2cccc3cc4ccccc4nc23)cc1	active: 0.1 µM	–
CCOC(=O)c1c(C)[nH]c(C(=O)COC(=O)CSCC(=O)N(CC)CC)c1C	inactive	–
CC1CCCN(CC(=O)Nc2ccc(S(=O)(=O)N3CCCCC3)cc2)C1 (configuration not stated)	inconclusive: 29.1 µM [inhibitor, single point]	–
C=CCC(NCc1ccccc1)c1ccc(C)o1 (configuration not stated)	inconclusive: 29.1 µM [inhibitor, single point]	–
CC1CCCCC1NC(=O)CN1CCC(NC(=O)c2cccc(F)c2)CC1 (configuration not stated)	inactive	–
CC(Sc1nc(-c2ccccc2)cc(C(F)(F)F)n1)C(=O)N1CCCCC1 (configuration not stated)	inconclusive: 29.1 µM [inhibitor, single point]	–
COc1ccccc1N1CCN(c2ccc(-c3nc(-c4ccccc4)no3)cc2[N+](=O)[O-])CC1	active: 11.6 µM	–
c1ccc(CSc2nnc3c(n2)OC(c2ccco2)Nc2ccccc2-3)cc1 (configuration not stated)	inconclusive: 13 µM [inhibitor, partial curve]	–
CC(=O)Nc1ccc2c(c1)[nH]c(=O)c1ccccc12	active: 0.82 µM	–
CCCN1CCC(N2CCN(c3cccc(C(F)(F)F)c3)CC2)CC1	active: 23.1 µM	–
Cc1[nH]n(-c2ccccc2)c(=O)c1/C=N/N1C(=O)c2ccc3c4c(ccc(c24)C1=O)CC3	inconclusive: 16.4 µM [inhibitor, single point]	–
CCC1CCCCN1CCCNC(=O)c1ccc2c(c1)N(Cc1ccc(Cl)cc1)C(=O)c1ccccc1S2(=O)=O (configuration not stated)	active: 23.1 µM	–
CCC(C)NC(=O)CCNS(=O)(=O)c1ccc(Br)cc1 (configuration not stated)	inactive	–
Cc1ccc(Nc2nnc(SCC(=O)NC(Cc3c[nH]c4ccccc34)C(=O)O)s2)cc1 (configuration not stated)	inactive	–

Structure (SMILES)	Potency	activity change, negative = growth inhibition
NNC(=O)COc1ccc(F)cc1	inactive	–
CC(C)c1c(C(=O)NCC2(N3CCOCC3)CCCC2)cnn1-c1nccc(-c2cccs2)n1	–	inactive: 1.26% [at 9.04 µM]
CCN(CC(=O)Nc1ccc(NC(C)=O)cc1)C(=O)c1cccc(S(=O)(=O)N2CCc3ccccc3C2)c1	inactive	–
CC(=O)Nc1ccccc1C(=O)N1CC2(C)CC1CC(C)(C)C2 (configuration not stated)	inactive	–
CC1=C(C(=O)N2CCOCC2)CC(CC(=O)NCC2CCCCC2)C(=O)N1CCC1=CCCCC1 (configuration not stated)	inconclusive: 16.4 µM [inhibitor, partial curve]	–
CC(=O)Nc1ccc(C(C#N)c2ccccc2)cc1 (configuration not stated)	inactive	–
CC(=O)N1CN(C2CC(C)(C)NC(C)(C)C2)Cc2c1sc1c2CCCC1	inconclusive: 29.1 µM [inhibitor, single point]	–
COc1ccc(-c2cc(N)n(S(=O)(=O)c3c(F)c(F)c(F)c(F)c3F)n2)cc1OC	active: 0.184 µM	–
CCc1nc2ccc(C(=O)NC3CCN(Cc4ccccc4)CC3)cn2c1N(C)Cc1ccc(N(C)C)cc1	inconclusive: 18.4 µM [inhibitor, single point]	–
O=C(O)C1CSC(c2coc3ccccc3c2=O)N1 (configuration not stated)	active: 25.9 µM	–
Cc1ccc(C)c(Cn2c(=O)n(CCCCCC(=O)NCc3ccc4c(c3)OCO4)c(=O)c3sccc32)c1	inconclusive: 25.9 µM [inhibitor, single point]	–
O=C(NCc1cccs1)c1cnc2ccccn2c1=O	inactive	–
Cc1cccc(C(=O)O[C@H]2[C@H](Cc3ccccc3)NS(=O)(=O)[C@H]3CC4C=C[C@]23O4)c1	inconclusive: 35.5 µM [inhibitor, single point] and inconclusive: 29.1 µM [inhibitor, single point]	–
CC(C)Nc1ncnc2c1nnn2Cc1ccccc1	–	inconclusive: -32% [inhibitor]
COCCOC(=O)c1c(C)oc2ccc(OC(=O)c3c(OC)cccc3OC)cc12	inconclusive: 20.6 µM [inhibitor, single point]	–
CCCn1nc(NC(=O)c2ccco2)c2cc3cc(C)ccc3nc21	inconclusive: 16.4 µM [inhibitor, single point]	–
COc1ccccc1Nc1nc(N)nc(CSC(=S)N2CCCCC2)n1	active: 8.2 µM	–
CSCc1nnc(NC(=O)c2ccc(S(=O)(=O)N3CCCCC3C)cc2)o1 (configuration not stated)	inconclusive: 29.1 µM [inhibitor, single point]	–
COc1ccccc1-c1cc(NCc2cccnc2)ncn1	inconclusive: 29.1 µM [inhibitor, single point]	–
O=C(OC(C(=O)Nc1ccc(Cl)cc1C(F)(F)F)c1ccccc1)c1c(Cl)cccc1Cl (configuration not stated)	inconclusive: 29.1 µM [inhibitor, single point]	–
COc1cc(C)c(S(=O)(=O)NOCc2ccccc2)c(C)c1C	inactive	–
CCOc1ccc(CCNC(=O)C2=C(C)C(=O)OC23CCC(C)CC3)cc1 (configuration not stated)	inactive	–
CCOc1ccc(NC(=O)CCC(=O)Oc2ccc(C)cc2)cc1	inactive	–
CCCN(CC(=O)Nc1ccc(Cl)cc1Cl)C(=O)/C=C/c1cc(OC)ccc1OC	inconclusive: 23.1 µM [inhibitor, single point]	–
